PubChem BioAssay AID1460 (National Center for Advancing Translational Sciences (NCATS), 2008)
Out of some 270,000 compounds screened, about 5,800 (2.1%) were called active. This list was built around the results that the source calls inconclusive (neither active nor inactive); the mix of calls is not that of the screen. Calls come from the whole dose curve; as a rule, active = well fitted inhibition curve with a large enough effect; inconclusive = small, poorly fitted or top-dose-only effect; inactive = flat fitted curve, though single readings scatter. A potency beside an inconclusive call is a rough fit, not a confirmed value.

The molecules below were run against Microtubule-associated protein tau (Homo sapiens) (UniProt P10636) (assay: qHTS for Inhibitors of Tau Fibril Formation, Thioflavin T Binding). Settings: recombinant tau K18 P301L (four-repeat tau fragment), heparin-induced fibrillization, ThT fluorescence; series mostly up to 57.4 µM.
UniProt P10636, sequence (P10636 whole entry, looked up, the tested form may be a part): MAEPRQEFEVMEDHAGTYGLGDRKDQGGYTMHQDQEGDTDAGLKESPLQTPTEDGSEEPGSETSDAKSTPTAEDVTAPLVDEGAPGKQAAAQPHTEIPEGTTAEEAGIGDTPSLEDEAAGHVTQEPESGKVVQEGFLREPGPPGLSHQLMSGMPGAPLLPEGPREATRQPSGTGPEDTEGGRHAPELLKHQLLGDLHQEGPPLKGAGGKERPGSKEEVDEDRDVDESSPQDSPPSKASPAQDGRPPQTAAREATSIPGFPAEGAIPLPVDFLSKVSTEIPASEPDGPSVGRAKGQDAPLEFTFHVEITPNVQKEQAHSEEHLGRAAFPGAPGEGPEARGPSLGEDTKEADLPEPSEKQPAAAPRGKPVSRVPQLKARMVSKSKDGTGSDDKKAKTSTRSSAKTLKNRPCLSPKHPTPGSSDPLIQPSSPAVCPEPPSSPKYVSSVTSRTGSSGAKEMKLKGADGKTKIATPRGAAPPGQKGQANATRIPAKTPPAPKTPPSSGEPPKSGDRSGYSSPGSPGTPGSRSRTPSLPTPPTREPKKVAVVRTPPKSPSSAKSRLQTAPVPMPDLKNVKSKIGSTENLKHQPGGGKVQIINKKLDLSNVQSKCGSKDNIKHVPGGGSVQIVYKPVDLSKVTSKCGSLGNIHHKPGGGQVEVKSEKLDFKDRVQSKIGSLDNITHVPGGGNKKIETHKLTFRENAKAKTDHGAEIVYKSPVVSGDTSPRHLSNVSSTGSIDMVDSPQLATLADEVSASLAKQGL
How it was run: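 K18 P301L tau (15 uM + 0.24 uM Alexa 594-tagged), heparin 20 uM, NaOAc pH 7, 6 h 37 C; ThT 30 uM, 1 h RT, ex 450/em 510 nm.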
% is set by controls: 0 for no effect and ±100 for the full control effect; potency is the fitted concentration of half-maximal effect; tags give direction and shape of the fitted curve.
Note: nearly all actives have a fitted effect of over 55% in size.

Row | SMILES | Potency | activity, negative = inhibition
1 | COc1ccc(Br)c(OC)c1C(=O)NC(=O)Nc1nc(C)cc(C)n1 | inactive | 
2 | CCOC(=O)N1CC=C2C(C#N)=C(N)C(C#N)(C#N)[C@H](c3ccc(OC(C)C)c(OCC)c3)[C@H]2C1 | inconclusive: 39.8 µM [inhibitor, single point] | 
3 | CCN(CC)C(=O)C1=C(C)Nc2nc3ccccc3n2C1c1ccc(Br)cc1 (stereo unspecified) | inactive | 
4 | CCCNS(=O)(=O)c1ccc(CCC(=O)N2CCCCC2)cc1 | inactive | 
5 | CCCCCCN1C=CC=C/C1=C\C=C(C#N)C#N | active: 15.8 µM | 
6 | COc1ccc(NC(=O)C2CCCN(S(=O)(=O)c3c(C)n[nH]c3C)C2)cc1 (stereo unspecified) | inconclusive: 44.7 µM [inhibitor, single point] | 
7 | COc1ccc(C)cc1NC(=O)C(=O)NCCc1sc(-c2ccc(Cl)cc2)nc1C | inconclusive: 5.62 µM [inhibitor, partial curve] | 
8 | Cc1c(NC(=O)/C(C#N)=C/c2ccc(-c3ccc(Cl)cc3)o2)c(=O)n(-c2ccccc2)n1C | active: 14.1 µM | 
9 | COc1ccc(N2CCN(C(=O)Cc3coc4ccc(C)cc34)CC2)cc1 | inactive | 
10 | COC(=O)c1ccc(NCCc2csc(-c3ccc(C)cc3)n2)c([N+](=O)[O-])c1 | inconclusive: 0.794 µM [inhibitor, full curve] | 
11 | COc1ccc(CCNC(=O)c2c(O)nc3cc(C)ccn3c2=O)cc1OC | inconclusive: 10 µM [inhibitor, partial curve] | 
12 | COc1ccc(OC)c(Nc2ccc(Nc3cc(OC)ccc3OC)nn2)c1 | inconclusive: 8.91 µM [inhibitor, partial curve] | 
13 | COc1ccc(/C=C/c2nc3ccccc3n2C)cc1 | inconclusive: 1.58 µM [inhibitor, full curve] | 
14 | N#C/C(=C\c1ccc(-c2ccccc2C(=O)O)o1)c1nc2ccccc2[nH]1 | inconclusive: 10 µM [inhibitor, partial curve] | 
15 | Cc1ccc(-c2ccc(CCC(=O)O)n2C(C)C)cc1 | inconclusive: 35.5 µM [inhibitor, partial curve] | 
16 | O=C(Cn1c(=O)n(Cc2ccco2)c(=O)c2ccc(C(=O)NC3CCCC3)cc21)Nc1ccc(F)cc1 | inconclusive: 35.5 µM [activator, single point] | 
17 | CCOC(=O)C1=C(C)NC2(O)c3ccccc3C(=O)C12O (stereo unspecified) | inactive | 
18 | COc1ccc(-n2nnnc2SCC(=O)NCc2ccco2)cc1OC | inactive | 
19 | COc1ccc2c(c1)c(CC(=O)N1CCOCC1)c(C)n2C(=O)c1ccc(Cl)cc1 | inactive | 
20 | Cc1cccc(OCC(=O)N/N=C\c2cc3c(cc2[N+](=O)[O-])OCO3)c1C | inconclusive: 15.8 µM [inhibitor, partial curve, poor fit] | 
21 | CC(=O)CC1(C)OC(N)=C(C#N)C1(C#N)C#N (stereo unspecified) | inconclusive: 25.1 µM [inhibitor, partial curve] | 
22 | CC(=O)N[C@@H](C(=O)O)C(C)(C)SN=O | active: 28.2 µM | 
23 | O=C(O)c1cc(N/N=C/C=C/c2ccccc2)ccc1Cl | inconclusive: 15.8 µM [inhibitor, partial curve] | 
24 | Cc1cc(Cl)ccc1OCC(=O)N1C(C)CCCC1C (stereo unspecified) | inactive | 

Row | SMILES | Potency | activity, negative = inhibition
25 | COc1ccc(C(CC(=O)Nc2ccc(C)cn2)N2Cc3ccccc3C2=O)cc1OC (stereo unspecified) | inactive | 
26 | O=C(NC(=S)Nc1cccc(NC(=O)c2ccccc2Cl)c1)c1cccs1 | inactive | 
27 | COC(=O)c1c(C)oc2ccc(N(C(=O)c3ccncc3)S(=O)(=O)c3cc(C)c(C)cc3C)cc12 | inconclusive: 12.6 µM [inhibitor, partial curve] | 
28 | COc1ccc(S(=O)(=O)N(CC(=O)N2CCN(c3ccccc3)CC2)c2ccccc2)cc1 | inactive | 
29 | CC1CCC(NC(=O)Nc2cccs2)CC1 (stereo unspecified) | inactive | 
30 | O=C(CSc1nnc(COc2ccc(Cl)cc2)o1)Nc1ccccc1 | inconclusive: 15.8 µM [inhibitor, partial curve] | 
31 | CC1CCN(C(=O)Nc2ccc3nsnc3c2)CC1 | inconclusive: 17.8 µM [inhibitor, partial curve] | 
32 | COc1ccc2c(C(=O)CN3CCN(c4ccccc4)CC3)c[nH]c2c1 | inconclusive: 2.24 µM [inhibitor, full curve] | 
33 | CSc1nc(C)c2c(c1C#N)CCCC2 | inactive | 
34 | Cc1ccccc1-c1nnc(CN2CCN(c3cc(Cl)ccc3C)CC2)o1 | inconclusive: 17.8 µM [inhibitor, partial curve] | 
35 | O=C(CNC(=O)c1ccco1)OCc1ccc(C(=O)c2ccccc2)cc1 | inactive | 
36 | C[C@@H]1/C=C\CC(=O)OC[C@H]2O[C@@H](C=C[C@@H]2O)[C@H](C)/C=C\CC(=O)OC1 |  | inactive: -4.9% [at 11.5 µM]
37 | CCOc1ccccc1C1N=C(N)Nc2nc3ccccc3n21 (stereo unspecified) | inactive | 
38 | COc1ccc2c(C=O)c[nH]c2c1 | inconclusive: 31.6 µM [inhibitor, single point] | 
39 | COc1ccc(N2C(=O)C3C(C2=O)C(C(=O)c2ccc(Cl)cc2)N2CCCC32)cc1 (stereo unspecified) | inconclusive: 28.2 µM [inhibitor, partial curve] | 
40 | Cc1nc(NNC(=O)c2ccc([N+](=O)[O-])cc2)cc(-c2ccccc2)n1 | inconclusive: 22.4 µM [inhibitor, partial curve] | 
41 | CSc1ccccc1NC(=S)NC1CCCCC1 | inactive | 
42 | Cc1nonc1NC(=O)CSc1nc(CCC2CCCC2)nc2ccccc12 | inconclusive: 14.1 µM [inhibitor, partial curve, poor fit] | 
43 | CC(C)(CNC(=S)NCCc1ccccc1)CNC(=S)NCCc1ccccc1 | inactive | 
44 | Cc1nnc(SCC(=O)Nc2cc(S(=O)(=O)N3CCCC3)ccc2Cl)s1 | inactive | 
45 | COCCNC(=O)c1ccc2c3n(nc2c1)-c1ccc(C)cc1CO3 | inconclusive: 1.41 µM [inhibitor, full curve] | 
46 | N#CC1=C(N)N(c2ccc(Cl)c(Cl)c2)C(=O)C1 | inconclusive: 31.6 µM [inhibitor, single point] | 
47 | COc1cc(NC(=O)Nc2cccc(Cl)c2)c(C(=O)O)cc1OC | inconclusive: 1.78 µM [inhibitor, partial curve, poor fit] | 
48 | [O-]/C(=C(\C(=S)Nc1ccccc1F)[n+]1ccccc1)c1ccc(-c2ccccc2)cc1 | inconclusive: 25.1 µM [inhibitor, partial curve] | 

Row | SMILES | Potency | activity, negative = inhibition
49 | CCOc1ccc(CCNC(=O)CCCc2cc(-c3ccc(OCC)cc3)on2)cc1 | inconclusive: 0.447 µM [inhibitor, full curve] | 
50 | Oc1ccc(-c2csc(-c3cccnc3)n2)c(O)c1 | inconclusive: 15.8 µM [inhibitor, partial curve] | 
51 | Cc1ccc(CN2CCSc3ccc(C(=O)Nc4ccc(Cl)cc4)cc32)cc1 | inconclusive: 4.47 µM [inhibitor, full curve, poor fit] | 
52 | CCOC(=O)N1CCN(C(=O)CCCn2c(=O)[nH]c3ccccc3c2=O)CC1 | inconclusive: 1.78 µM [inhibitor, full curve] | 
53 | CCn1cc(C(=O)N2CCN(c3cc(Cl)ccc3C)CC2)c2cc(OC)c(OC)cc2c1=O | inconclusive: 31.6 µM [inhibitor, single point] | 
54 | CCC(=O)N1CCc2cc(Br)cc(S(=O)(=O)CCC(=O)Nc3cccc(CC)c3)c21 | inactive | 
55 | CCOC(=O)c1c(/N=C/C2=C(O)CC(C)(C)CC2=O)sc(C(C)=O)c1C | inconclusive: 14.1 µM [inhibitor, partial curve, poor fit] | 
56 | Cc1cc(=O)oc2cc(OCc3ccc(C(=O)N4CCN(c5ccc([N+](=O)[O-])cc5)CC4)cc3)ccc12 | inconclusive: 1.26 µM [inhibitor, full curve] | 
57 | COC(=O)CC1C(C)(C)C2(O)OC34CC2C(=O)[C@@]1(C)C3CC[C@]1(C)C4=CC(=O)OC1c1ccoc1 (stereo partly specified) | inactive | 
58 | Cc1cc(C)cc(Oc2coc3c(CN4CCN(C)CC4)c(O)ccc3c2=O)c1 | inconclusive: 39.8 µM [inhibitor, single point] | 
59 | CCC12CN3CC(C)(CN(C1)C3c1ccc(O)cc1O)C2=O (stereo unspecified) | inactive | 
60 | COc1ccc(Nc2c(-c3ccc(Cl)cc3)nc3cnccn23)cc1OC | inconclusive: 31.6 µM [inhibitor, single point] | 
61 | C(=N\Nc1nncc2ccccc12)/c1ccccc1 | inconclusive: 44.7 µM [inhibitor, single point] | 
62 | COC(=O)c1cccc(NC(=O)CSc2nnnn2C)c1 | inactive | 
63 | COc1ccc2c(c1)CCC1C2=NN(/C(C)=C/C(C)=O)C1c1cccc(F)c1 (stereo unspecified) | inconclusive: 12.6 µM [inhibitor, partial curve] | 
64 | O=C(Nc1cccc(C(F)(F)F)c1)C1CCN(c2nnc(-n3cccc3)s2)CC1 | inconclusive: 28.2 µM [inhibitor, single point] | 
65 | Cc1nc2cccnc2n1-c1cccc(C(=O)NCc2ccc(OC(C)C)cc2)c1 | inactive | 
66 | N#CC(C(=O)NC1CC1)c1nc2ccccc2nc1N1CCCC1 (stereo unspecified) | inconclusive: 22.4 µM [inhibitor, partial curve] | 
67 | CC(=O)C1=C(C)N(Cc2ccccc2)C(=O)N[C@@H]1c1cccc(C(F)(F)F)c1 | inconclusive: 20 µM [inhibitor, single point] | 
68 | Cc1nc2sccn2c1-c1nc(-c2cc3ccccc3o2)cs1 | inconclusive: 1.41 µM [inhibitor, partial curve] | 
69 | CCn1c(COc2ccccc2)nnc1SCC(=O)c1cccc([N+](=O)[O-])c1 | inconclusive: 31.6 µM [inhibitor, partial curve] | 
70 | Cc1ccc2nc(/C(C#N)=C/c3cccc(Br)c3)[nH]c2c1 | active: 5.01 µM | 
71 | Cc1ccc2c(C)nc(N/C(N)=N/S(=O)(=O)c3ccc([N+](=O)[O-])cc3)nc2c1 | inconclusive: 14.1 µM [inhibitor, partial curve] | 
